According to article PMC4336329 (PLoS ONE, 2015):
The whole screen tested about 310,000 compounds, of which about 2,200 (0.71%) showed an effect of 50% or more. Effects have a minus sign here. Some of the results follow.

Molecular target: human ether-à-go-go-related gene (hERG) potassium channel (human, UniProt Q12809)
Assay: primary screen, population patch clamp on CHO cells stably expressing hERG

Chain of human ether-à-go-go-related gene (hERG) potassium channel (Q12809 whole entry, looked up): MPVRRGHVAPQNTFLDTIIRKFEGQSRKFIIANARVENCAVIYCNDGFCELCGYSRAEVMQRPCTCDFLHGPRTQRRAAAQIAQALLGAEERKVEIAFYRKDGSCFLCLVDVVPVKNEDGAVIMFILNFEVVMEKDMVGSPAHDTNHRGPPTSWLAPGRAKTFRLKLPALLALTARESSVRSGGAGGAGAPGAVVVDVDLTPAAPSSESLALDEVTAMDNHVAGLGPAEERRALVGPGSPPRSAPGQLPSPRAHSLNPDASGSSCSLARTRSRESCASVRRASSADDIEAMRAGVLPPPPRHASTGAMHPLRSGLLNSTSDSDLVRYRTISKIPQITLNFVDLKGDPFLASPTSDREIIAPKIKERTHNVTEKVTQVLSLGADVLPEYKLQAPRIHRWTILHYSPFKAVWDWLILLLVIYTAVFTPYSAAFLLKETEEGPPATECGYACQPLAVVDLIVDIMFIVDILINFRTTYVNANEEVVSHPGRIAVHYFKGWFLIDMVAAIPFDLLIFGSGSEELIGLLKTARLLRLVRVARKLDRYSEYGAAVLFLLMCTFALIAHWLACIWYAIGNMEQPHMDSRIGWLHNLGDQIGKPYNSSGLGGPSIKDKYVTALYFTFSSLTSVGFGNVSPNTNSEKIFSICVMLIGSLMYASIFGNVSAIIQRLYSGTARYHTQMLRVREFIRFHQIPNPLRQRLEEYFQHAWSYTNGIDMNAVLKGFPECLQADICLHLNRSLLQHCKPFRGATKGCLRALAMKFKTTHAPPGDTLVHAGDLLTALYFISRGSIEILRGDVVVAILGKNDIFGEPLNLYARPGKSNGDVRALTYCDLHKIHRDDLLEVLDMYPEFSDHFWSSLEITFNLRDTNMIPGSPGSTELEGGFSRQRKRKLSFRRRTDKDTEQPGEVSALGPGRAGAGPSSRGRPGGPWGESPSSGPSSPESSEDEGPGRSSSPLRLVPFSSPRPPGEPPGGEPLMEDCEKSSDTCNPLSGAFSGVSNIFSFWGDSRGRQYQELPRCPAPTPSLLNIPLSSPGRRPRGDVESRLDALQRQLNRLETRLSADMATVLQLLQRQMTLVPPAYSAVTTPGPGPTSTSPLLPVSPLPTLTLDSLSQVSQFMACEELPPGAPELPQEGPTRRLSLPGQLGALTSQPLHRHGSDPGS

Compound | hERG current change (%, negative = inhibition) at 1uM [%]
C=CCNc1cnn(-c2ccccc2)c(=O)c1Cl | 17
CCOC(=O)c1sc2nc(C)[nH]c(=O)c2c1C | 9.96
COc1ccccc1NC(=S)N1CCCc2ccccc21 | 11.7
O=C(COc1ccccc1)NC1C(=O)N2C(C(=O)O)=C(Cl)CSC12 (stereo not drawn) | 9.71
CC(C)(C)P(=O)(NCc1ccccc1)c1ccccc1 (stereo not drawn) | 16
CCc1sc(C(=O)NCCCN2CCCC2=O)cc1Br | 10.5
Cc1ccc2oc(-c3cccc(NC(=O)c4ccc(Br)o4)c3)nc2c1 | 6.25
O=C(/C=C/c1ccccc1)Nc1sc2c(c1C(=O)O)CCC2 | 8.75
CCCN1CCC[C@H](c2cccc(O)c2)C1.Cl | 2.7
OCCCNc1ncnc2oc(-c3ccccc3)c(-c3ccccc3)c12 | 7.88
COc1ccccc1CN1CC(C(=O)NCCc2ccccc2Cl)CCC1=O (stereo not drawn) | 7.3
CCC(C)NC(=O)c1ccc(Cl)c(S(=O)(=O)Nc2ccccc2N2CCOCC2)c1 (stereo not drawn) | 9.98
CCN1CCCC1CNC(=O)Cn1ncc2c(=O)oc3ccc(C)cc3c21 (stereo not drawn) | 6.65
COc1ccc(NC(=O)NCc2cccn2C)c(OC)c1 | 12.1
O=C(NC(=S)Nc1ccc(NC(=O)c2cccs2)cc1)c1cc2ccccc2o1 | 0.457
CC1CN(C(=O)CSc2ncnc3sccc23)CC(C)O1 (stereo not drawn) | 9.01
CN1CCc2c(n(CC(O)CN3CCN(CCO)CC3)c3ccccc23)C1=O.Cl (stereo not drawn) | 16.9
Cc1noc2ncnc(SCc3ccc(C(F)(F)F)cc3)c12 | 3.91
COc1ccccc1/C=C1\SC(=O)N(CCC(=O)N(C)C2CCS(=O)(=O)C2)C1=O (stereo not drawn) | 7.31

Compound | hERG current change (%, negative = inhibition) at 1uM [%]
COc1ccc(CN2CC(=O)N(c3ccc(C)c(C)c3)C2=S)cc1OC | 10.6
CCO[C@@H]1OC(C(=O)Nc2ccccc2)=C[C@H](c2ccc3c(c2)OCO3)[C@H]1CCCO | 13.5
Cc1ccc(C2=NNC(c3cccc(F)c3)S2)cc1 (stereo not drawn) | 9.73
CC(=O)N1CCOc2ccc(S(=O)(=O)NCCc3ccc(S(N)(=O)=O)cc3)cc21 | 4.69
COc1ccccc1CNCc1cc(OC)c(OC)cc1OC | 6.65
O=C(COc1ccc2ccccc2c1)NNC(=O)[C@@H]1CCCC[C@@H]1C(=O)O | 17.2
CSc1cccc(CNC(=O)C2CCC(=O)N(CC3CCCCC3)C2)c1 (stereo not drawn) | 13.3
COc1ccc(CN(C(=O)CSc2nnc(-c3ccc(OC)c(OC)c3)o2)c2ccc(F)cc2)cc1 | 5.14
CCOc1ccc(N2CC(C(=O)NC3CCSC3=O)CC2=O)cc1 (stereo not drawn) | 10.6
CCOc1ccc(/C=C/C(=O)c2ccc(-c3ccccc3)cc2)cc1 | 20.4
Oc1c(Br)cc(Br)cc1/C=N/NC(=S)N[C@H]1CC2C=CC1C2 (stereo partly drawn) | 11.8
COc1ccc(NC(=O)CN2CCC(n3c(C)nc4cc(F)ccc43)CC2)c(OC)c1 | 13.6
CCn1cc(Cl)c(C(=O)NNC(=O)CCn2nc(C)c([N+](=O)[O-])c2C)n1 | -3.52
O=C(Cc1ccc(-n2c(=O)[nH]c3ccsc3c2=O)cc1)NCc1cccnc1 | 14
CCn1nc(C)c(CNC(=O)c2cc(COc3ccc(C)nc3)on2)c1C | 24.2
Cc1nn(C)cc1CNC(=O)/C=C/c1cnn(C)c1 | 11.5
Cc1nn2c(NCCOCCO)c3c(nc2c1-c1ccccc1)CCCC3 | -75.3
Cc1cc2ccccc2n1CCNC(=O)COc1ccc2ccccc2c1 | 11.1
CC(=O)N1c2ccc(S(=O)(=O)N3CCC(C(=O)Nc4cc(C)ccn4)CC3)cc2CC1C (stereo not drawn) | 13.5

Compound | hERG current change (%, negative = inhibition) at 1uM [%]
COCCC1CCCCN1C(=O)c1cccc(OC2CCN(C3CCCC3)CC2)c1 (stereo not drawn) | 23.9
CSc1nnc(-c2ccccc2N=Cc2c(C)[nH]n(-c3ccc4ccccc4c3)c2=O)c(=O)[nH]1 | 9.08
CCOc1ccc(OCC)c(NC(=O)C2CCCN(S(=O)(=O)c3cnc[nH]3)C2)c1 (stereo not drawn) | 13.2
Cl.O=C(CN1CCN(c2ccc(F)cc2)CC1)NCc1cccs1 | 0.973
CN(Cc1ccc(C(F)(F)F)cc1)C(=O)c1ccc(Oc2ccccc2)cc1 | 11.8
CCN(CC)c1cc2nc(C)n(Cc3ccccc3)c(=O)c2cc1NC(=O)C1CC1 | 0.211
CNC(=O)O/N=C(\C)Cc1nnn(-c2cc(C)on2)n1 | 8.99
CC(=O)Nc1ccc(Sc2ccccc2C(=O)O)cc1 | 14.3
O=C1CN(S(=O)(=O)c2cc(C(=O)O)ccc2Cl)c2ccccc2N1 | 9.56
CC(C)NS(=O)(=O)c1ccc(OCC(=O)N2CCN(c3ccccc3)CC2)cc1 | 7.22
O=C(O)c1cccnc1SCc1ccccc1 | 1.43
Cc1nc(NC(C)(C)CO)c([N+](=O)[O-])cc1[N+](=O)[O-] | 3.21
O=[N+]([O-])c1ccc(N2CCSCC2)cc1 | 13
COC(=O)N/N=C(\C)c1ccc(OC(F)F)cc1OC(F)F | 11.1
COc1ccc(NS(=O)(=O)c2ccc(F)cc2F)cn1 | 19.5
COc1ccc(Nc2cc(Sc3ccc(OC)cc3)ncn2)cc1 | 8.88
C/C=C/C(=O)Nc1cccc(C2=NOC3(C2)C[C@@H](C(N)=O)N(C(=O)/C(C)=C/C)C3)c1 (stereo partly drawn) | 7.3
CC(C)(CNC(=O)c1ccc(NS(=O)(=O)c2ccc(Br)cc2)cc1)N1CCOCC1 | 0.502
CC1(C)C(=O)OC(/C=C\c2cccc([N+](=O)[O-])c2)C(C)(C)C1=O (stereo not drawn) | 9.5
